Measurements taken from PubChem BioAssay AID1508642 (National Center for Advancing Translational Sciences (NCATS), 2021).
Among all 43,000 compounds or so, about 200 (0.47%) were called active. Another 12% or so got no clear call; they are omitted. The call rests on the fitted dose curve; in most records, active means well fitted cell-killing curve with a large enough effect; inconclusive means small, poorly fitted or top-dose-only effect, or effect the other way; inactive means flat fitted curve, though single readings scatter. The list shows a part of the results.

assay: Cell viability qHTS assay in S16 Pmp22-F2sN cells; conditions: S16 Pmp22-F2sN Schwann cells viability, CellTiter-Glo, 24 h; series mostly up to 57.5 µM; activity change, negative = cytotoxicity: at the top concentration; further: nearly all actives have a fitted effect of over 65% in size
Procedure, shortened: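 Viability was measured by CellTiter-Glo luminescence (15 min, room temperature). This followed 24 h at 37 °C of compound exposure (23 nL pin transfer) in S16 Pmp22-F2sN Schwann cells, 500-1,000 per well.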
On the % scale 0 is the no-effect control and ±100 the full control effect.

| Structure (SMILES) | activity change, negative = cytotoxicity |
| --- | --- |
| Cc1ccc(C)c(CN2C(=O)c3ccccc3S(=O)c3ccc(C(=O)N4CCN(c5ccccc5F)CC4)cc32)c1 (stereo not given) | inactive: 11.7% |
| COc1ccc(N2CCN(S(=O)(=O)c3ccc4c(c3)CCCN4C(C)=O)CC2)cc1 | inactive: -7.12% |
| CC1CCN(CCCNC(=O)c2cn(C)c3ccc(S(=O)(=O)N(C)C4CCCCC4)cc3c2=O)CC1 | inactive: 14.2% |
| COc1cc2c(cc1OC)C(COc1ccc(C(C)C)cc1)N(C(=O)c1ccc(S(=O)(=O)N3CCCC3)cc1)CC2 (stereo not given) | inactive: 1.62% |
| CCOC(=O)c1c(NC(=O)c2cc(=O)c3cc(Cl)ccc3o2)sc(C)c1C | inactive: 1.41% |
| COc1ccc(N2C(=O)C(CC(=O)Nc3ccc(Cl)cc3)N(Cc3ccc4c(c3)OCO4)C2=O)cc1 (stereo not given) | inactive: -11.9% |
| COc1ccc(NC(=O)CCc2nc3cccnc3n2-c2ccccc2)c(OC)c1 | inactive: -0.144% |
| CCN1CCN(C(c2ccc(C)cc2)c2sc3nc(-c4ccco4)nn3c2O)CC1 (stereo not given) | inactive: 0.191% |
| CCOc1ccc(CCNC(=O)CSc2nnnn2-c2ccccc2Cl)cc1OCC | inactive: -2.56% |
| COCCn1c(=N)c(C(=O)NCC2CCCO2)cc2c(=O)n3ccccc3nc21 (stereo not given) | inactive: 14.2% |
| Cc1ccc(C)c(N2CCN(C(=O)CN3CCSc4ccccc43)CC2)c1 | inactive: 6.71% |
| Cc1cccc(-c2nc(SCc3cc(=O)c4cccc(F)c4[nH]3)n[nH]2)c1 | inactive: -26.3% |
| O=C(NCCS(=O)(=O)N1CCN(c2ccccc2F)CC1)c1ccccc1C(F)(F)F | inactive: -16% |
| COc1cccc(CNC(=O)Cn2c(=O)cc(C(F)(F)F)c3c(C)nn(C)c32)c1OC | inactive: -6.88% |
| CCOC(=O)c1ccc2c(c1)sc1nc(-c3ccc(OCC)cc3)cn12 | inactive: 1.3% |
| CCN(CC)CCCNC(=O)c1c2c(nc3ccccc13)C(=O)N(C1CCCCC1)C2 | inactive: 3.57% |
| Cc1c(-c2ccc(Cl)cc2)c(=O)oc2c(CN3CCN(C)CC3)c(O)ccc12 | inactive: -7.94% |
| Cc1ccc(C)c(N(C)C(=O)CCNC(=O)Cn2cnc3ccccc3c2=O)c1 | inactive: 3.31% |
| CC(C)CC(=O)Nc1nnc(S(=O)(=O)N(C)c2ccc(Cl)cc2)s1 | inactive: -1.85% |
| CC(C)c1nn2c(=O)cc(COC(=O)c3cccc(NC(=O)c4ccccc4F)c3)nc2s1 | inactive: 6.75% |

| Structure (SMILES) | activity change, negative = cytotoxicity |
| --- | --- |
| CCC1Oc2ccc(C)cc2N(CC(=O)NCc2ccc(F)cc2)C1=O (stereo not given) | inactive: -0.177% |
| O=C(Nc1cccc(Cl)c1)C(Cc1ccccc1)n1cccc1 (stereo not given) | inactive: 12.8% |
| CC1CCc2c(sc3nc(-c4cc5ccccc5oc4=O)nc(Cl)c23)C1 (stereo not given) | inactive: 6.44% |
| CCOC(=O)C1CCCN(C(=O)c2cc3c(Cl)nc4ccccc4c3s2)C1 (stereo not given) | inactive: 7.91% |
| Cc1c(C(=O)N2CCCCCC2)c(S(=O)(=O)Nc2ccc(OC(F)(F)F)cc2)c(C)n1C | inactive: -10.9% |
| O=C1CC(c2ccccc2)Cc2[nH]c(=O)c(C(=O)Nc3ccc(F)cc3)cc21 (stereo not given) | inactive: 4.55% |
| CCOc1ccc(CCNC(=O)CCCc2nnc3n(CCCOC)c(=O)c4sccc4n23)cc1 | inactive: 21.5% |
| CCOC(=O)c1ccc(NC(=O)CSc2cc(-c3ccccc3)nc(C)n2)cc1 | inactive: 4.14% |
| CC(=O)N1CCN(C(=O)C(=O)Nc2c3c(nn2-c2ccc(Cl)cc2)CSC3)CC1 | inactive: -1.91% |
| CCOc1ccccc1-c1noc(CSc2nnc(-c3ccncc3)n2-c2ccc(F)cc2)n1 | inactive: 6.08% |
| COc1ccc(-c2nnc(SCC(=O)N3CCCCC3)o2)cc1 | inactive: 0.892% |
| O=C(COc1ccccc1)Nc1c(C(=O)N2CCN(c3ccc(F)cc3)CC2)oc2ccccc12 | inactive: 3.12% |
| CC1CCN(C(=O)CN2c3ccc(Br)cc3-c3ccccc3S2(=O)=O)CC1 | inactive: -9.17% |
| CCOc1ccc2c(c1)c(=O)c(S(=O)(=O)c1ccc(CC)cc1)cn2CC | inactive: -10.2% |
| CCc1ccc(OCC(=O)Nc2cc3oc4ccccc4c3cc2OC)c(Br)c1 | inactive: -8.71% |
| COc1cccc(CNC(=O)CSc2cc(C)[nH]c(=O)n2)c1 | inactive: 2.76% |
| Cc1ccc(C(=O)COC(=O)CCCC(=O)Nc2cc(C(F)(F)F)ccc2Cl)cc1C | inactive: 6.76% |
| Cc1c(Cl)cccc1NC(=O)CSc1nc(=O)n(Cc2ccncc2)c2c1CCC2 | inactive: 4.05% |
| Cn1c(=O)n(Cc2ccccc2Cl)c(=O)c2c1nc1n2CCN1c1ccccc1 | inactive: 8.65% |
| CCn1ccc2cc(S(=O)(=O)N3CCCN(C(=O)Nc4ccc(C)cc4Cl)CC3)ccc21 | inactive: 16.9% |

| Structure (SMILES) | activity change, negative = cytotoxicity |
| --- | --- |
| Cc1cc(Nc2ccccc2F)n2nc(Cc3ccc(Cl)cc3)nc2n1 | inactive: -17.2% |
| COc1cc2c(cc1OC)n(CC(=O)Nc1ccc(C)cc1C)c(=O)n1nc(-c3ccccc3)nc21 | inactive: -0.318% |
| COc1ccc(C(=O)NCc2ccc3c(c2)CCN3C(C)=O)cc1OC | inactive: 13.6% |
| Cc1ccc(-c2nc3cc(Cl)ccc3o2)cc1NC(=O)c1cc2ccccc2o1 | inactive: 4.38% |
| Cc1c(C(=O)N(C)C)sc2c1c(=O)n(-c1ccccc1C(F)(F)F)c(=O)n2Cc1ccccc1C#N | inactive: -6.32% |
| COc1ccc(NC(=O)Cn2c(=O)n(Cc3nc(C)no3)c(=O)c3cc4c(cc32)OCO4)cc1 | inactive: 16.1% |
| Cc1cc(C)cc(NS(=O)(=O)c2ccc(-c3cc(C)no3)s2)c1 | inactive: -10.6% |
| COc1ccc(NC(=O)c2cc3c(=O)n(Cc4cccs4)ccc3nc2C)c(OC)c1 | inactive: -8.03% |
| Cc1cc(C)c(NC(=O)C2CCN(C(=O)N3CC(C)Oc4ccc(Cl)cc43)CC2)c(C)c1 (stereo not given) | inactive: -1.93% |
| COc1ccccc1CNC(=O)CCCn1c(=O)c2ccccc2n(CC(=O)Nc2ccc(C)cc2Cl)c1=O | inactive: 20.2% |
| CC(C)Cc1nn2c(=O)cc(COC(=O)c3cccc(NC(=O)c4cccs4)c3)nc2s1 | inactive: 17.8% |
| COc1ccc(-c2nsc(NC(=O)COc3ccccc3OC)n2)cc1 | inactive: -0.971% |
| CCOc1ccc(NC(=O)CC2Nc3cccc4cccc(c34)NC2=O)cc1 (stereo not given) | inactive: -21.4% |
| COc1ccc(C(=O)N2CCCCC2CCN2CCOCC2)cc1 (stereo not given) | inactive: 6.01% |
| CC1=C(c2ccc(C)c(C)c2)S(=O)(=O)N=C1N1CCN(c2cccc(C)c2)C(C)C1 (stereo not given) | inactive: 3.21% |
| Cc1c(Cl)cccc1NC(=O)c1cc(-c2cccs2)on1 | inactive: -16.2% |
| Cc1c(C(=O)N2CCC(C)CC2)c(S(=O)(=O)Nc2cccc(C#N)c2)c(C)n1C | inactive: 0.342% |
| COc1ccc(CN2CCCN(CC(=O)Nc3ccc(Br)cc3F)S2(=O)=O)cc1 | inactive: 1.82% |
| Cc1ccc(-n2ncc(C(=O)NCc3ccc4c(c3)OCO4)c2C2CCN(C(=O)OC(C)(C)C)CC2)cc1C | inactive: -26.9% |
| CCOC(=O)c1ccc(NC(=O)C2=C(C)C(=O)OC23CCCCCC3)cc1 | inactive: 1.84% |
